Source: the supplement of paper PMC4604168 (melanoma cell lines)
The list shows a part of the results. Most values come without repeats; read them as rough.

system: SkMel5; assay: cell count relative to DMSO control; melanoma cells; higher = more viable cells; conditions: library dose: standard library concentration; 72 h
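Further: cells treated in 1,536-well plates, then fixed and DAPI-stained, with nuclei counted from automated high-throughput microscope images.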

| SMILES | cell count |
| --- | --- |
| Cn1cc(C2=C(c3cn(C4CCN(Cc5ccccn5)CC4)c4ccccc34)C(=O)NC2=O)c2ccccc21 [Enzastaurin] + Cc1cc(Nc2cc(N3CCN(C)CC3)nc(/C=C/c3ccccc3)n2)n[nH]1 [ENMD2076] (first compound 4 µM, partner dose 0.2 µM) | 61.1% |
| C[As](C)SC[C@H](NC(=O)CC[C@H](N)C(=O)O)C(=O)NCC(=O)O [Darinaparsin] + Cn1cc(/C=C2\C(=O)Nc3cccnc32)c2ccccc21 [GW441756] (first compound 2 µM, partner dose 2 µM) | 38.9% |
| C[As](C)SC[C@H](NC(=O)CC[C@H](N)C(=O)O)C(=O)NCC(=O)O [Darinaparsin] + CC(C)(C)c1cnc(CSc2cnc(NC(=O)C3CCNCC3)s2)o1 [SNS-032] (first compound 2 µM, partner dose 0.05 µM) | 44.9% |
| N.N.[Cl][Pt][Cl] [cisplatin] + CS(=O)(=O)CCNCc1ccc(-c2ccc3ncnc(Nc4ccc(OCc5cccc(F)c5)c(Cl)c4)c3c2)o1 [lapatinib] (first compound 8 µM, partner dose 4 µM) | 71% |
| C[C@]12O[C@H](C[C@]1(O)CO)n1c3ccccc3c3c4c(c5c6ccccc6n2c5c31)CNC4=O [Lestaurtinib] + C[C@]1(c2nc3c(C(N)=O)cccc3[nH]2)CCCN1 [Veliparib] (first compound 0.02 µM, partner dose 7 µM) | 64.1% |
| Cn1cc(C2=C(c3cn(C4CCN(Cc5ccccn5)CC4)c4ccccc34)C(=O)NC2=O)c2ccccc21 [Enzastaurin] + CN1CCN(c2ccc3nc(-c4c(N)c5c(F)cccc5[nH]c4=O)[nH]c3c2)CC1 [Dovitinib] (first compound 4 µM, partner dose 0.5 µM) | 47.9% |
| Cn1cc(C2=C(c3cn(C4CCN(Cc5ccccn5)CC4)c4ccccc34)C(=O)NC2=O)c2ccccc21 [Enzastaurin] + C[C@@H](Oc1cc(-c2cnn(C3CCNCC3)c2)cnc1N)c1c(Cl)ccc(F)c1Cl [Crizotinib] (first compound 4 µM, partner dose 1 µM) | 72.8% |
| C[As](C)SC[C@H](NC(=O)CC[C@H](N)C(=O)O)C(=O)NCC(=O)O [Darinaparsin] + Cc1cc(SCc2sc(-c3ccc(C(F)(F)F)c(F)c3)nc2C)ccc1OCC(=O)O [GW0742] (first compound 2 µM, partner dose 10 µM) | 80.5% |
| C[C@]12O[C@H](C[C@]1(O)CO)n1c3ccccc3c3c4c(c5c6ccccc6n2c5c31)CNC4=O [Lestaurtinib] + O=C(O)c1ccc2c(c1)nc(Nc1cccc(Cl)c1)c1ccncc12 [CX4945] (first compound 0.02 µM, partner dose 2 µM) | 51.2% |
| N.N.[Cl][Pt][Cl] [cisplatin] + Clc1ccc(Nc2nnc(Cc3ccncc3)c3ccccc23)cc1 [vatalanib] (first compound 8 µM, partner dose 10 µM) | 84.2% |
| Cn1cc(C2=C(c3cn(C4CCN(Cc5ccccn5)CC4)c4ccccc34)C(=O)NC2=O)c2ccccc21 [Enzastaurin] + COc1cc(Nc2ncc(F)c(Nc3ccc4c(n3)NC(=O)C(C)(C)O4)n2)cc(OC)c1OC [Tamatinib] (first compound 4 µM, partner dose 2 µM) | 54.1% |
| N.N.[Cl][Pt][Cl] [cisplatin] + COc1cc(Nc2ncc(F)c(Nc3ccc4c(n3)NC(=O)C(C)(C)O4)n2)cc(OC)c1OC [Tamatinib] (first compound 8 µM, partner dose 2 µM) | 55% |
| C[C@]12O[C@H](C[C@]1(O)CO)n1c3ccccc3c3c4c(c5c6ccccc6n2c5c31)CNC4=O [Lestaurtinib] + Nc1ncn([C@H]2C[C@H](O)[C@@H](CO)O2)c(=O)n1 [decitabine] (first compound 0.02 µM, partner dose 0.5 µM) | 53.8% |
| C[As](C)SC[C@H](NC(=O)CC[C@H](N)C(=O)O)C(=O)NCC(=O)O [Darinaparsin] + CCc1ccc(CCOc2ccc(CC3SC(=O)NC3=O)cc2)nc1 [pioglitazone] (first compound 2 µM, partner dose 10 µM) | 50.8% |
